The supplement of paper PMC12217912
This is one part of the list. The full chains were built here from the parent and the listed change. Inactive controls read about 0.05.

B1: TEV protease; numbered along this chain (parent)
chain: MGESLFKGPRDYNPISSSICHLTNESDGHTTSLYGIGFGPFIITNKHLFRRNNGTLVVQSLHGVFKVKDTTTLQQHLVDGRDMIIIRMPKDFPPFPQKLKFREPQREERICLVTTNFQTKSMSSMVSDTSCTFPSGDGIFWKHWIQTKDGQCGSPLVSTRDGFIVGIHSASNFTNTNNYFTSVPKNFMELLTNQEAQQWVSGWRLNADSVLWGGHKVFMVKPEEPFQPVKEATQL

Variants of: B1
Test: raw area under fraction-flipped curve 0-4 h after induction (AUC4h, not background-subtracted), DNA-recorder readout of cleavage of the substrate (dimensionless); higher = more cleavage of the substrate by the protease variant
Conditions: temperature: 34 °C; time window: 0-4 h after rhamnose induction
Method: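 In vivo DNA recorder in E. coli TOP10(DE3) ΔrhaA at 34 °C. Each TEVp single-site mutant (parent TEVp 0) is paired with a single-site variant of the 7-mer TEVs (canonical ENLYFQ|S). The substrate sits between flexible linkers in a Bxb1-sfGFP-TEVs-SsrA fusion, so cleavage stabilises Bxb1 and speeds flipping of a recombination array, read by NGS. The value is the raw area under the fraction-flipped curve over 0-4 h after rhamnose induction (AUC4h), with ≥20 reads per time point. It is not background-subtracted; inactive controls average about 0.047.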
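Note: Bxb1 expression induced with 0.2% (w/v) L-rhamnose at OD600 near 0.5, cultures sampled hourly, flipped fraction per protease–substrate barcode pair counted by paired-end Illumina sequencing.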

Variant | area with substrate CNLYFQS | area with substrate GNLYFQS | area with substrate HNLYFQS | area with substrate INLYFQS | area with substrate KNLYFQS | area with substrate LNLYFQS | area with substrate NNLYFQS | area with substrate PNLYFQS | area with substrate RNLYFQS | area with substrate SNLYFQS | area with substrate TNLYFQS | area with substrate WNLYFQS | area with substrate YNLYFQS | area with substrate MNLYFQS | area with substrate VNLYFQS | area with substrate FNLYFQS | area with substrate QNLYFQS
S18F | 0.058 | 0.0745 | 0.0614 | 0.0592 | 0.0627 | 0.071 | 0.0613 | 0.0631 | 0.0598 | 0.0641 | 0.0634 | 0.0545 | 0.0539 | – | – | – | –
S18P | 0.0088 | 0.054 | 0.0439 | 0.0422 | 0.044 | 0.0587 | 0.0802 | 0.0539 | – | 0.0411 | – | 0.0472 | – | 0.0517 | 0.0519 | – | –
S18V | 0.0765 | – | 0.0544 | 0.0603 | 0.0737 | – | 0.0619 | 0.0769 | 0.0533 | 0.0672 | 0.0687 | 0.0576 | – | – | 0.0647 | 0.112 | –
S18Y | 0.0672 | – | 0.067 | – | 0.0772 | 0.0552 | – | 0.0574 | – | 0.0658 | 0.0669 | 0.0567 | 0.0633 | – | – | – | 0.0598
I19Q | 0.0691 | 0.0667 | 0.0614 | 0.0736 | – | – | 0.0735 | 0.0681 | 0.0628 | – | 0.0655 | 0.0394 | 0.0647 | – | 0.0678 | 0.0572 | 0.0661
I19T | 0.0897 | – | 0.0778 | – | – | 0.0686 | 0.0658 | – | – | – | – | 0.0463 | – | 0.0626 | – | 0.0664 | –
C20A | 0.051 | – | 0.0595 | 0.067 | – | – | 0.0577 | 0.077 | 0.0587 | 0.0839 | 0.077 | 0.0658 | 0.0732 | 0.0372 | – | – | 0.0852
C20E | 0.0463 | 0.0533 | 0.0405 | – | 0.0476 | 0.0502 | – | 0.0396 | – | 0.0435 | 0.0436 | 0.0466 | 0.0452 | 0.0606 | – | – | –
H21K | 0.0517 | 0.0595 | 0.0624 | 0.0608 | – | 0.0749 | – | – | 0.0375 | – | 0.0472 | 0.0624 | 0.0662 | 0.0589 | 0.0765 | 0.0584 | 0.0591
H21S | 0.0678 | 0.0674 | 0.0711 | 0.0569 | 0.074 | 0.0546 | 0.0568 | 0.0651 | – | – | 0.0642 | 0.0602 | 0.0449 | 0.0647 | 0.049 | 0.0835 | –
L22A | 0.0415 | 0.0609 | 0.0606 | 0.0405 | 0.0444 | – | – | 0.057 | – | 0.0468 | 0.0559 | 0.0521 | – | 0.0629 | 0.0427 | 0.0552 | 0.0625
T23M | 0.0712 | – | 0.0615 | 0.0521 | 0.066 | 0.0701 | 0.0556 | 0.062 | – | – | 0.0592 | 0.0599 | 0.0559 | 0.0527 | 0.0877 | 0.0704 | 0.0509
T23Q | 0.0585 | 0.0625 | – | 0.0717 | 0.0849 | 0.0406 | 0.0683 | 0.0755 | – | 0.0639 | 0.0599 | 0.0526 | – | 0.126 | 0.0741 | – | 0.0731
N24K | 0.0572 | – | 0.0516 | 0.0379 | 0.0718 | 0.0525 | 0.0488 | 0.062 | – | – | – | 0.062 | 0.0585 | 0.0591 | – | – | –
